The record followed here is the supplement of paper PMC9446081.

About 220 (0.56%) of roughly 39,000 compounds showed activity. Some of the results follow.
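Also: static incubation at 37 °C against the wild-type strain, values averaged over two biological replicates.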

The subject of this assay is Escherichia coli K-12 BW25113. The assay can be described thus: relative growth (OD600 normalised to plate interquartile mean) (fraction); higher = less growth inhibition, active = 0.2 or less. The note with it: 50 µM; LB; incubation time: overnight (16-24 h).
For `COc1ccc(S(=O)(=O)N(C)C[C@@H]2Oc3ccc(NS(=O)(=O)c4cn(C)cn4)cc3CC(=O)N([C@@H](C)CO)C[C@@H]2C)cc1`, the relative growth was inactive: 0.984.

Take `COc1ccc(NC(=O)N(C)C[C@H]2Oc3ccc(NC(=O)CCCN(C)C)cc3C(=O)N([C@H](C)CO)C[C@H]2C)cc1`: the relative growth was inactive: 0.977.

Regarding `Cc1ccc(S(=O)(=O)Nc2ccc3c(c2)CC(=O)N([C@H](C)CO)C[C@@H](C)[C@H](CN(C)S(=O)(=O)c2cn(C)cn2)O3)cc1`, the relative growth is inactive: 0.982.

With `COc1ccc(CN(C)C[C@H]2OCCCC[C@H](C)Oc3ccc(NC(=O)c4ccccc4)cc3C(=O)N([C@@H](C)CO)C[C@H]2C)cc1`, the relative growth is inactive: 0.992.

In the case of `Cn1cccc1[C@@H](CN)N1CCCC1`, the relative growth was inactive: 0.985.

Turning to `C[C@@H]1CN([C@H](C)CO)C(=O)c2cc(NC(=O)c3ccccc3)ccc2O[C@@H](C)CCCCO[C@H]1CN(C)C(=O)C1CCCCC1`, the relative growth was inactive: 1.

As for `CSC1=N[C@@]2(C)CCCC[C@@H]2c2c1ccc1ccccc21`, the relative growth is inactive: 1.01.

Take `CC12CCC3c4ccc(O)cc4CCC3C1CCC2OC(=O)CCC1CCCC1` (stereo not given): the relative growth was inactive: 1.18.

Consider `C[C@H]1CN([C@@H](C)CO)S(=O)(=O)c2ccc(-c3cccnc3)cc2O[C@@H]1CN(C)C(=O)NC1CCCC1`, for which the relative growth is inactive: 1.

For the compound `COC(=O)C1=CO[C@@H](O[C@@H]2O[C@H](CO)[C@@H](O)[C@H](O)[C@H]2O)[C@H]2[C@@H]1[C@H](O)C[C@]2(C)O`, the relative growth was inactive: 0.981.

As for `C[C@@H]1CN([C@H](C)CO)C(=O)c2cccc(NC(=O)c3nc4ccccc4s3)c2O[C@H]1CN(C)Cc1ccc(Cl)c(Cl)c1`, the relative growth was inactive: 1.06.

Take `C[C@@H]1CCCCO[C@H](CN(C)S(C)(=O)=O)[C@@H](C)CN([C@H](C)CO)C(=O)c2cc(NC(=O)Nc3ccc(C(F)(F)F)cc3)ccc2O1`: the relative growth was inactive: 1.06.

In the case of `O=C(C[C@@H]1CC[C@H]2[C@@H](COC[C@@H](O)CN2S(=O)(=O)c2ccc(Oc3ccccc3)cc2)O1)NCCN1CCCCC1`, the relative growth is inactive: 0.98.

As for `CC(C)NC(=O)Nc1cccc2c1O[C@@H](CN(C)C(=O)NC1CCCCC1)[C@@H](C)CN([C@H](C)CO)C2=O`, the relative growth is inactive: 0.977.

On to `CCNC(=O)C[C@H]1CC[C@@H](NC(=O)C2CC2)[C@@H](CO)O1`, for which the relative growth was inactive: 1.02.

Regarding `CC1(C)C[C@@](CCN)(Cc2ccccc2)CCO1`, the relative growth is inactive: 1.02.

With `C[C@H](CO)N1C[C@H](C)[C@@H](CN(C)C(=O)Nc2cccc3ccccc23)Oc2ccc(NC(=O)C3CCCCC3)cc2CC1=O`, the relative growth was inactive: 1.

As for `CC(C)NC(=O)N(C)C[C@@H]1Oc2c(NS(=O)(=O)c3ccccc3)cccc2C(=O)N([C@@H](C)CO)C[C@@H]1C`, the relative growth is inactive: 1.03.

For the compound `C[C@@H]1CCCCO[C@@H](CN(C)C(=O)Nc2ccc(F)cc2)[C@H](C)CN([C@@H](C)CO)C(=O)c2cc(NC(=O)NC3CCCCC3)ccc2O1`, the relative growth was inactive: 1.

In the case of `COCC#Cc1ccc2c(c1)O[C@@H](CN(C)C(=O)c1ccccc1F)[C@H](C)CN([C@@H](C)CO)S2(=O)=O`, the relative growth is inactive: 0.983.

`O=C(NCO)c1ccc([N+](=O)[O-])cc1`: the relative growth is inactive: 1.02.

On to `C[C@@H]1CN([C@@H](C)CO)C(=O)Cc2cc(NS(=O)(=O)c3ccc(Cl)cc3)ccc2O[C@H]1CN(C)Cc1ccc(Oc2ccccc2)cc1`, for which the relative growth is inactive: 0.986.

`Cc1c(O)c(=O)ccn1C`: the relative growth was inactive: 0.985.

As to `COc1cccc(S(=O)(=O)Nc2ccc3c(c2)[C@H]2C[C@H](CC(=O)NCc4ccccc4F)O[C@H](CO)[C@H]2O3)c1`, the relative growth was inactive: 1.01.

Take `Cn1cnc(S(=O)(=O)N2C[C@H](O)COC[C@H]3O[C@@H](CC(=O)NCc4ccc(F)cc4)CC[C@@H]32)c1`: the relative growth was inactive: 0.976.

For the compound `C[C@H](O)C#Cc1cnc2c(c1)C(=O)N([C@@H](C)CO)C[C@@H](C)[C@@H](CN(C)C(=O)Nc1ccc(C(F)(F)F)cc1)O2`, the relative growth is inactive: 0.997.

With `Cc1noc(C)c1NC(=O)N(C)C[C@@H]1Oc2ccc(NC(=O)Cn3cnnn3)cc2C(=O)N([C@H](C)CO)C[C@H]1C`, the relative growth is inactive: 1.01.

With `Cn1cnc(S(=O)(=O)N[C@H]2CC[C@@H](CC(=O)N3CCN(c4ccccc4)CC3)O[C@H]2CO)c1`, the relative growth was inactive: 0.997.

Turning to `C[C@H]1CN([C@@H](C)CO)C(=O)Cc2cc(NC(=O)Nc3ccc(C(F)(F)F)cc3)ccc2O[C@H]1CN(C)C(=O)NC1CCCCC1`, the relative growth was inactive: 1.03.

As for `C[C@@H]1CN([C@H](C)CO)C(=O)Cc2cc(N(C)C)ccc2O[C@H]1CN(C)S(=O)(=O)c1ccc(Cl)cc1`, the relative growth was inactive: 0.998.

For the compound `C[C@@H]1CN([C@@H](C)CO)C(=O)Cc2cc(NC(=O)Nc3ccc(C(F)(F)F)cc3)ccc2O[C@H]1CN(C)S(=O)(=O)c1ccc(Cl)cc1`, the relative growth was inactive: 1.01.

As for `COc1ccc2c3c(n(c2c1)C)[C@@H](CO)N(C[C@]13CN(C1)C(=O)C1CC1)C(=O)CN1CCOCC1`, the relative growth was inactive: 0.993.

As to `C[C@@H]1CN([C@H](C)CO)C(=O)c2cc(NS(=O)(=O)c3ccccc3)ccc2O[C@@H](C)CCCCO[C@H]1CN(C)C(=O)Nc1ccc(F)cc1`, the relative growth is inactive: 1.

For `C[C@@H]1CN([C@@H](C)CO)C(=O)c2cc(C#C[C@@H](C)O)cnc2O[C@H]1CN(C)Cc1cncnc1`, the relative growth was inactive: 0.996.

With `Cc1ccc(-c2cnc3c(c2)C(=O)N([C@@H](C)CO)C[C@@H](C)[C@H](CN(C)C(=O)Cc2ccncc2)O3)cc1`, the relative growth is inactive: 0.996.

For `O=C(N[C@@H](c1cccnc1)c1ccc2c(c1)OCO2)C1CCN(CCOc2ccc(Cl)cc2Cl)CC1`, the relative growth is inactive: 0.975.

As for `Cc1noc(C)c1NC(=O)Nc1ccc2c(c1)C(=O)N([C@@H](C)CO)C[C@@H](C)[C@H](CN(C)Cc1ccc3c(c1)OCO3)OCCCC[C@H](C)O2`, the relative growth is inactive: 1.02.

For `COc1ccc(NC(=O)N(C)C[C@@H]2Oc3ncc(C#CCN(C)C)cc3C(=O)N([C@H](C)CO)C[C@H]2C)cc1`, the relative growth is inactive: 0.977.

Regarding `Cc1ccc2sc(C(=O)O)cc2c1`, the relative growth is inactive: 0.985.

Turning to `COc1ccc([Si](C)(C)[C@H]2[C@H](CCO)O[C@@]3(C(=O)N(Cc4ccccc4)c4ccc(N(C=O)c5ccccc5)cc43)[C@@H]2C)cc1`, the relative growth is inactive: 1.03.

`C/C=C/c1ccc2c(c1)O[C@H](CN(C)Cc1ccc(C(=O)O)cc1)[C@H](C)CN([C@@H](C)CO)S2(=O)=O`: the relative growth was inactive: 0.998.

As for `CCCC(=O)Nc1ccc2c(c1)OC[C@H](C)N(Cc1ccc(-c3ccccn3)cc1)C[C@@H](C)[C@H](OC)CN(C)C2=O`, the relative growth was inactive: 0.999.

Turning to `C[C@@H]1CN([C@@H](C)CO)C(=O)c2cc(NC(=O)CCN3CCOCC3)ccc2O[C@@H]1CN(C)S(=O)(=O)c1cccs1`, the relative growth was inactive: 1.

Regarding `C[C@@H]1CN([C@@H](C)CO)C(=O)c2cc(NC(=O)Nc3ccc4c(c3)OCO4)ccc2O[C@H]1CN(C)Cc1ccc(C(=O)Nc2ccccc2N)cc1`, the relative growth is inactive: 1.02.

For `Cc1noc(C)c1NC(=O)N(C)C[C@@H]1Oc2ccc(NC(=O)CCN3CCOCC3)cc2CC(=O)N([C@@H](C)CO)C[C@@H]1C`, the relative growth is inactive: 1.01.

Consider `COc1ccc(S(=O)(=O)N(C)C[C@@H]2OCCCC[C@H](C)Oc3ccc(NC(=O)CCC(F)(F)F)cc3C(=O)N([C@H](C)CO)C[C@H]2C)cc1`, for which the relative growth is inactive: 1.02.

Turning to `C[C@@H]1CN([C@@H](C)CO)C(=O)Cc2cc(NC(=O)C3CCCCC3)ccc2O[C@H]1CN(C)S(C)(=O)=O`, the relative growth is inactive: 0.957.

Take `C[C@H](CO)N1C[C@H](C)[C@H](CN(C)S(=O)(=O)c2cn(C)cn2)Oc2c(NC(=O)CCCCCC(=O)Nc3ccccc3N)cccc2C1=O`: the relative growth is inactive: 1.

Take `CNC[C@H]1OCCCC[C@@H](C)Oc2ccc(NC(=O)c3ccncc3)cc2C(=O)N([C@H](C)CO)C[C@H]1C`: the relative growth is inactive: 0.977.

For the compound `COc1ccc(NC(=O)Nc2ccc3c(c2)CC(=O)N([C@H](C)CO)C[C@H](C)[C@@H](CN(C)C(=O)Nc2cccc4ccccc24)O3)cc1`, the relative growth was inactive: 1.

`C[C@@H]1CCCCO[C@@H](CN(C)C(=O)CCC(F)(F)F)[C@H](C)CN([C@H](C)CO)C(=O)c2cc(NS(=O)(=O)c3ccccc3)ccc2O1`: the relative growth is inactive: 0.994.

On to `N[C@H](C(=O)O)c1cc(O)cc(O)c1`, for which the relative growth was inactive: 0.989.

For the compound `CC[N+](CC)(CC)CCOc1cccc(OCC[N+](CC)(CC)CC)c1OCC[N+](CC)(CC)CC.[I-].[I-].[I-]`, the relative growth was inactive: 1.15.

In the case of `C[C@H](CO)N1C[C@H](C)[C@H](CN(C)C(=O)Nc2cccc3ccccc23)Oc2ccc(NC(=O)NC3CCCCC3)cc2CC1=O`, the relative growth was inactive: 0.986.

With `CC(C)NC(=O)Nc1cccc2c1O[C@@H](CN(C)S(=O)(=O)c1ccc(F)cc1)[C@@H](C)CN([C@@H](C)CO)C2=O`, the relative growth is inactive: 0.946.

Regarding `Cc1ccc(S(=O)(=O)N(C)C[C@H]2OCCCC[C@H](C)Oc3ccc(NC(=O)Nc4c(C)noc4C)cc3C(=O)N([C@@H](C)CO)C[C@H]2C)cc1`, the relative growth was inactive: 0.968.

Take `CN1C(=O)c2cc(NC(=O)c3ccc(F)cc3)ccc2OC[C@H]2O[C@H](CC(=O)N3CCOCC3)CC[C@H]21`: the relative growth was inactive: 1.02.

With `COc1ccc(S(=O)(=O)N(C)C[C@H]2OCCCC[C@@H](C)Oc3ccc(NC(=O)Nc4ccc(C(F)(F)F)cc4)cc3C(=O)N([C@H](C)CO)C[C@@H]2C)cc1`, the relative growth was inactive: 1.01.

As for `Cc1cccc(NC(=O)Nc2ccc3c(c2)C(=O)N(C)[C@@H]2CC[C@@H](CC(=O)NCc4ccccc4Cl)O[C@@H]2CO3)c1`, the relative growth was inactive: 0.998.

On to `C[C@@H]1ON(c2ccc(C(=O)OC(C)(C)C)cc2)[C@H](c2ccc(O)cc2)[C@H]1C(=O)N1C(=O)OC[C@H]1Cc1ccccc1`, for which the relative growth is inactive: 1.05.
